Data: PubChem BioAssay AID504466 (National Center for Advancing Translational Sciences (NCATS), 2011)
Out of some 330,000 compounds screened, about 4,200 (1.3%) were called active. Inconclusive means that the source gave no clear call. Such entries were picked first, then a sample of the others. Calls come from the whole dose curve; as a rule, active = well fitted activation curve with a large enough effect; inconclusive = small, poorly fitted or top-dose-only effect; inactive = no such curve, though single readings can be large or run the other way. Potencies beside an inconclusive call are fits to weak or partial responses and may not hold up.
Potency is the fitted concentration of half-maximal effect; tags give direction and shape of the fitted curve.

Test: qHTS screen for small molecules that induce genotoxicity in human embryonic kidney (HEK293T) cells expressing luciferase-tagged ELG1; note: nearly all actives have a fitted effect of over 60% in size; for activity change, positive = activation: % of control where 0% means no effect
Settings: HEK293T ELG1-luciferase reporter, luminescence, 16 h; series mostly up to 46 µM; activity change, positive = activation: at the top concentration
How it was run: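 Luminescence read-out: rising ELG1-luciferase signal, reflecting elevated ELG1 protein under genetic stress, flags genotoxic compounds. Cells were treated for 16 hr at 37 °C before ONE-Glo detection.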
With `CCOC(=O)CNC(=O)c1sc(NC(=O)/C=C/c2ccccc2)nc1C` the Potency was inconclusive: 32.6 µM [activator, partial curve, poor fit]. In the case of `COc1ccc2c(=O)c(-c3ccccc3)c(C)oc2c1`, the Potency is reported as inconclusive: 20.6 µM [activator, partial curve, poor fit]. With `C=C(NC(=O)C(=C)NC(=O)c1csc(C2=NC3c4csc(n4)C4NC(=O)c5csc(n5)C([C@@](C)(O)C(C)O)NC(=O)C5CSC(=N5)/C(=C\C)NC(=O)C(C(C)O)NC(=O)c5csc(n5)[C@]3(CC2)NC(=O)C(C)NC(=O)C(=C)NC(=O)C(C)NC(=O)C(C(C)CC)NC2C=Cc3c(C(C)O)cc(nc3C2O)C(=O)OC4C)n1)C(N)=O` (stereo partly drawn) the Potency was inconclusive: 6.51 µM [activator, single point]. In the case of `O=C(CSc1nc2ccccc2[nH]1)Nc1ccc(N2CCOCC2)cc1`, the “activity change, positive = activation” value is reported as inactive: -2.98%. In the case of `CCCn1c(C(O)c2cc(OC)c(OC)c(OC)c2)nc2ccccc21` (stereo not drawn), the “activity change, positive = activation” value is reported as inactive: -3.33%. In the case of `Clc1ccc(-n2nnc(-c3cccnc3Cl)n2)cc1Cl`, the Potency is reported as active: 10.3 µM. In the case of `O=C(Nc1cnn(C23CC4CC(CC(C4)C2)C3)c1)c1cnn2cccnc12`, the Potency is reported as inconclusive: 2.31 µM [activator, full curve]. With `O=C(CSCc1ccc(F)cc1)NC1CCCC1` the Potency was inconclusive: 20.6 µM [activator, partial curve, poor fit]. With `Cc1ccsc1CNc1ncnc2ccc(-c3c(C)noc3C)cc12` the Potency was inconclusive: 9.2 µM [activator, partial curve]. For `O=C(/C=C/c1ccco1)NCc1ccccn1`, the “activity change, positive = activation” value was inactive: 5.21%. For `COc1ccc(C(=O)NC(=S)NNC(=O)c2ccc3ccccc3n2)cc1`, the Potency was inconclusive: 18.3 µM [activator, single point]. For `Fc1ccc(-n2nnc(-c3nccs3)n2)cc1`, the Potency was active: 3.66 µM. With `Cc1cccc(-c2noc(CCC(=O)N3CCN(c4cc(C)ccc4C)CC3)n2)c1` the Potency was inconclusive: 13 µM [activator, partial curve]. For `Cc1ccc(-c2cn3cccc(C)c3n2)cc1`, the Potency was inconclusive: 1.64 µM [activator, partial curve]. For `CCOC(=O)N1CCN(C(=O)COc2ccc(S(=O)(=O)Nc3ccc(OCC)cc3)cc2)CC1`, the Potency was inconclusive: 25.9 µM [activator, partial curve, poor fit]. With `Cc1nc(C)c(-c2csc(Nc3cccc(O)c3)n2)s1` the Potency was inconclusive: 5.17 µM [activator, single point]. With `COc1ccc(OC)c(/C=N/N(C)c2ccccc2)c1` the Potency was active: 5.8 µM. For `COc1ccc(CNC(=O)Cc2ccc(NC(=O)C3=C(C)OCCS3)cc2)cc1`, the Potency was active: 16.4 µM. With `COc1cc(SC)ccc1C(=O)NCCOc1ccccc1Cl` the Potency was inconclusive: 7.31 µM [activator, partial curve]. With `O=C(COC(=O)c1ccc(-c2nnc(-c3ccccc3)o2)cc1)c1ccccc1` the Potency was inconclusive: 0.731 µM [activator, full curve]. With `CCCCC(Sc1nc(N)c(NC(=O)c2ccco2)c(=O)[nH]1)C(=O)O` (stereo not drawn) the “activity change, positive = activation” value was inactive: 0.171%. In the case of `Cc1ccccc1OC(C)C(=O)N1CCN(c2ccccn2)CC1` (stereo not drawn), the “activity change, positive = activation” value is reported as inactive: -6.66%. For `Cc1ccc(CNC(=O)c2cc3c(C)nc4ccccc4c3o2)cc1`, the Potency was inconclusive: 32.6 µM [activator, partial curve, poor fit]. For `CCC(C)n1nccc1NC(=O)C(C)OC(=O)c1cc2ccccc2[nH]1` (stereo not drawn), the Potency was inconclusive: 13 µM [activator, partial curve, poor fit]. With `Cc1ccc(C(=O)Nc2sc3c(c2C#N)CCCCC3)cc1C` the Potency was inconclusive: 4.11 µM [activator, full curve]. In the case of `Fc1ccccc1-c1nc(-c2ccc(-c3nn[nH]n3)cc2)no1`, the Potency is reported as inconclusive: 20.6 µM [activator, partial curve]. For `Cc1csc(C(C#N)C(=O)c2cc3ccccc3o2)n1` (stereo not drawn), the Potency was inconclusive: 2.59 µM [activator, full curve, poor fit]. For `Cc1ccnc(NC(=O)c2ccc(Br)s2)c1`, the Potency was inconclusive: 1.46 µM [activator, full curve]. For `O=C(/C=C/c1cccc(F)c1)N1CCc2ccccc21`, the Potency was active: 1.84 µM. With `CCOc1cccc2cc(C(=O)NCc3ccc(OC)cc3)c(=N)oc12` the Potency was inconclusive: 25.9 µM [activator, partial curve, poor fit]. With `Cc1cc(C(=O)CN2C(=O)C(=O)N(CC(C)C)C2=O)c(C)n1C1CC1` the “activity change, positive = activation” value was inactive: 17.1%. For `Cn1c2ccccc2c(=O)c2cc(C#Cc3cccc(N)c3)ccc21`, the Potency was inconclusive: 10.3 µM [activator, partial curve, poor fit]. With `C/C(=N\NC(=O)c1ccc(CN2CCOCC2)cc1)c1ccc(NC(=O)c2ccccc2)cc1` the Potency was inconclusive: 20.6 µM [activator, partial curve, poor fit]. For `CCCNc1ncccc1C(N)=O`, the “activity change, positive = activation” value was inactive: -0.749%. In the case of `COc1ccccc1CNC(=O)COC(=O)c1cc(=O)c2ccccc2o1`, the “activity change, positive = activation” value is reported as inactive: 0.396%. With `CC(=O)Nc1ccc2oc(-c3ccccc3Br)nc2c1` the Potency was active: 1.84 µM. With `CCc1ccc(NS(=O)(=O)c2ccc3[nH]cc(C(=O)NCC4CCCO4)c(=O)c3c2)cc1` (stereo not drawn) the Potency was inconclusive: 20.6 µM [activator, partial curve, poor fit]. With `OC(C#Cc1ccccn1)c1cccs1` (stereo not drawn) the Potency was inconclusive: 25.9 µM [activator, partial curve, poor fit]. With `O=C(Nc1ccccc1O)c1c(O)c2c([nH]c1=O)CCCC2` the Potency was inconclusive: 16.4 µM [activator, partial curve]. In the case of `CC(=O)c1ccc(-c2ccc(C(=O)NCC(c3ccco3)N(C)C)o2)cc1` (stereo not drawn), the Potency is reported as inconclusive: 23.1 µM [activator, single point]. With `CCCNc1nc(C)nc2c1cnn2CCc1ccccc1` the Potency was inconclusive: 20.6 µM [activator, partial curve]. For `C/C(CC(=O)Nc1ccc2c(c1)OCCO2)=N\NC(=O)c1ccccc1Cl`, the Potency was inconclusive: 4.11 µM [activator, full curve, poor fit]. For `N/C(=N\OC(=O)c1cccc(Br)c1)c1ccncc1`, the Potency was inconclusive: 14.6 µM [activator, partial curve, poor fit].
